# According to the supplement of paper PMC9446081:
# The campaign covered roughly 39,000 compounds. About 220 (0.56%) showed activity. Some of the results follow.
# System: Escherichia coli K-12 BW25113
# Test: relative growth (OD600 normalised to plate interquartile mean) (fraction); higher = less growth inhibition, active = 0.2 or less
# Settings: 50 µM; LB; incubation time: overnight (16-24 h)
# 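Note: static incubation at 37 °C against the wild-type strain, values averaged over two biological replicates.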
row,Structure (SMILES),relative growth
1,C[C@H](CO)N1C[C@H](C)[C@@H](CN(C)S(=O)(=O)c2cn(C)cn2)Oc2ccc(NS(C)(=O)=O)cc2CC1=O,inactive: 1.04
2,C[C@@H]1CN(C)C(=O)c2cccc(NC(=O)c3ccncc3)c2O[C@H]1CN(C)Cc1ccc(Oc2ccccc2)cc1,inactive: 0.998
3,COc1ccc(CN(C)C[C@H]2OCCCC[C@H](C)Oc3ccc(NS(=O)(=O)c4ccc(C)cc4)cc3C(=O)N([C@@H](C)CO)C[C@@H]2C)cc1,inactive: 0.982
4,COc1ccc(NC(=O)N(C)C[C@H]2Oc3ccc(NC(=O)Cn4cnnn4)cc3CC(=O)N([C@@H](C)CO)C[C@H]2C)cc1,inactive: 0.994
5,C[C@H](CO)N1C[C@H](C)[C@@H](CN(C)C(=O)Nc2cccc3ccccc23)OCCCC[C@H](C)Oc2ccc(NC(=O)Nc3ccc(F)cc3)cc2C1=O,inactive: 1.04
6,C[C@H](CO)N1C[C@H](C)[C@H](CN(C)S(=O)(=O)c2ccc(Cl)cc2)Oc2ccc(NC(=O)Cn3cnnn3)cc2C1=O,inactive: 1.01
7,O=C(O)c1cncnc1N1CCCC1,inactive: 1.03
8,Cc1noc(C)c1S(=O)(=O)N(C)C[C@H]1Oc2ccc(NS(=O)(=O)c3ccc(Cl)cc3)cc2C(=O)N([C@H](C)CO)C[C@H]1C,inactive: 1.04
9,C[C@@H]1CCCCO[C@@H](CN(C)C(=O)CCC(F)(F)F)[C@@H](C)CN([C@H](C)CO)C(=O)c2cc(NS(=O)(=O)c3cccs3)ccc2O1,inactive: 0.968
10,C[C@H]1CCCCO[C@H](CN(C)C(=O)Nc2ccccc2)[C@@H](C)CN([C@@H](C)CO)C(=O)c2cc(NC(=O)Cc3ccccc3)ccc2O1,inactive: 1.01
11,C[C@@H]1CCCCO[C@H](CN(C)C(=O)Nc2ccc(F)cc2)[C@@H](C)CN([C@@H](C)CO)C(=O)c2cc(NC(=O)CCCN(C)C)ccc2O1,inactive: 1.01
12,CC(C)(C)S(=O)N1Cc2cc(C(=O)N[C@@H]3CCN(Cc4ccccc4)C3)nc(-c3cccc(C#CCC4CCCC4)c3)c2[C@@H]1CCO (some centres not stated),inactive: 1.06
13,O=C(Nc1ccccc1)c1ccccc1,inactive: 0.985
14,C[C@@H]1CN([C@H](C)CO)S(=O)(=O)c2ccc(Br)cc2O[C@H]1CN(C)Cc1cccc(C(=O)O)c1,inactive: 0.987
15,C[C@H]1CN([C@@H](C)CO)C(=O)c2cccc(NS(=O)(=O)c3ccccc3)c2O[C@H]1CN(C)Cc1ccc(Cl)c(Cl)c1,inactive: 1.06
16,Nc1nc(F)nc2c1ncn2[C@@H]1O[C@H](CO)[C@@H](O)[C@H]1O,inactive: 0.259
17,CC(=O)N(C)C1(c2ccccc2)CCN(CCC[C@]2(c3ccc(Cl)c(Cl)c3)CCCN(C(=O)c3ccccc3)C2)CC1,inactive: 0.956
